Laboratory results published in PubChem BioAssay AID686971 (National Center for Advancing Translational Sciences (NCATS), 2013).
Among all 360,000 compounds or so, about 7,500 (2.1%) were called active. The inconclusive results got no clear call from the source; some entries with a clear call stand among them for comparison. The call rests on the fitted dose curve; in most records, active means well fitted cell-killing curve with a large enough effect; inconclusive means small, poorly fitted or top-dose-only effect, or effect the other way, or another doubt; inactive means no such curve, though single readings can be large or run the other way. Potencies of inconclusive entries are left out as doubtful fits.

Experiment: qHTS for induction of synthetic lethality in tumor cells producing 2HG: qHTS for the HT-1080-IDH1KD cell line
Details: HT-1080 IDH1 knockdown viability, ATP luminescence, 48 h; activity, negative = toxicity: at 46.1 µM (top of the series) unless noted
Excerpt: Unbiased genomic sequencing for 22 glioma genomes found recurrent mutation of IDH1 on chromosome 2q33, a gene encoding the cytosolic isoform of IIDH1 associated with the tri-carboxylic acid cycle (TCA) that catalyzes the oxidative decarboxylation of isocitrate, yielding alpha-ketoglutarate and CO2 via NADP+ to NADPH conversion. Subsequent studies confirmed the recurrent IDH mutations in up to 70% of secondary gliomas and in 10% of AML cases. In addition, the somatic mutation of cancer-associated IDH1 is a point mutation resulting in various amino-acid substituents at Arginine132 (IDH1 R132), a key residue found in the enzyme's active site that when mutated, results in the loss-of-function in metabolizing isocitrate but confers a gain-of-function to produce the oncometabolite 2-hydroxyglutarate (2HG). This in effect defines IDH1 as an oncogene and provides an extraordinary opportunity to discover chemical probes against mutant IDH1 that may translate into much needed new therapies for glioma and AML patients.
This assay aims to perform a synthetic-lethal screen for chemical probes specific for 2HG-producing tumor cells using matched paired cell lines (1) HT-1080-NT fibrosarcoma cell line that overproduces 2HG and (2) HT-1080-IDH1KD cell line which has IDH1 expression knocked-down. Desirable compounds are toxic to the NT fibrosarcoma cell line but not to the IDH1KD cell line. The data in this AID corresponds to the results of the qHTS against the HT-1080 IDH1KD cell line.
[1] Dang L, Jin S, Su SM. IDH mutations in glioma and acute myeloid leukemia. Trends of Mol Med. 2010; 16(9): 387-97.
[2] Dang L et al. Cancer-associated IDH1 mutations produce 2-hydroxyglutarate. Nature. 2010; 465(7300):966.
Molecular Libraries Probe Production Centers Network [MLPCN]
NIH Chemical Genomics Center [NCGC]
Assay Submitter (PI): Lenny Dang Ph.D., Agios Pharmaceuticals
Suspensions of trypsinized HT-1080-IDH1KD cells were dispensed into white, tissue culture-treated, solid 1536-well plates at 5uL/well (750 cells/well final concentration) in RPMI medium supplemented with 5% FBS. Plates were incubated at 37 degrees C for 2 hours, after which 23 nL of compounds or DMSO were delivered to each well using a pin tool. Plates were then incubated at 37 degrees C for an additional 48 hours. CellTiter-Glo viability reagent (Promega) was dispensed into wells (2.5uL/well) and incubated at room temperature for 10 minutes. The plates were measured on a PerkinElmer ViewLux plate reader for luminescent signal (clear filter, 1 sec exp.). DMSO-treated control wells and media-only (no cells) control wells were used to normalize %Activity of identified toxic compounds; DMSO-treated wells corresponded to 0%Activity (100% viability), while media-only controls were used to normalize 100%Activity (0% viability). To minimize variability between cell lines, both HT-1080-NT and HT-1080-IDH1KD lines were dispensed and treated with identical compound series in single batches.
Concentration-response curves were fitted to the signals arising from the resulting luminescence. The concentration-effect curves were then classified based on curve quality (r2), response magnitude and degree of measured activity, and compounds were subsequently categorized based on their curve class.
Potency means the concentration at half of the fitted maximal effect; tags describe the fitted curve by direction and shape.

Compound	activity, negative = toxicity	Potency
O=C(Cc1ccc(Cl)cc1)Nc1ccncc1	inconclusive: -32.4% [cytotoxic]	–
O=C(NCCc1ccccc1Cl)C1CCC(=O)N(C2CCCCCC2)C1 (stereo not drawn)	–	inactive
O=C(CCS(=O)(=O)Cc1ccccc1)Nc1nnc(C(F)(F)F)s1	inconclusive: -36.9% [cytotoxic]	–
Cc1cc(Cl)ccc1-c1cc2nc(NCCCN(C)C)n(C)c(=O)c2s1	–	active: 18.4 µM
O=C1C=CC(=O)N1c1ccccc1N1C(=O)C=CC1=O	–	active: 5.8 µM
CC(NC(=O)C12CC3CC(CC(C3)C1)C2)C(=O)N/N=C/C1=C(N2CCOCC2)C(=C\c2ccccc2)/CC1 (stereo not drawn)	–	inconclusive [cytotoxic, partial curve]
CCOC(=O)c1c(-c2ccc(OC)cc2)csc1/N=C/C1=C(O)CCCC1=O	–	inconclusive [cytotoxic, single point]
Cc1ccc(NC(=O)COc2cccc(C)c2C)cc1S(=O)(=O)N1CCCCCC1	–	inconclusive [cytotoxic, single point]
CCCCNC(=S)Nc1ccc(C(F)(F)F)cc1	–	inconclusive [cytotoxic, single point]
Cn1ccc2c(-c3cccc(C=O)c3F)cc3c(c21)C1CCC3C1 (stereo not drawn)	–	inconclusive [cytotoxic, single point]
CCCNC(=O)c1cc(C2CCCN(C(=O)C3CCCCC3)C2)on1 (stereo not drawn)	–	inconclusive [rising, single point]
Cc1ccc(NC(=O)c2ccc(S(=O)(=O)NCc3cccnc3)cc2)cc1C	–	inactive
Cc1c(CCOC(=O)CC23CC4CC(CC(C4)C2)C3)sc[n+]1Cc1ccccc1	–	inconclusive [cytotoxic, partial curve]
Cc1nn2c(c1-c1ccccc1)NC1=C(C(=O)CCC1)C2c1ccccc1 (stereo not drawn)	–	inconclusive [cytotoxic, single point]
O=C(Nc1ccc(Oc2ccc3c(c2)C(=O)N(c2ccc(O)cc2)C3=O)cc1)c1cccs1	–	inconclusive [cytotoxic, single point]
O=C1CCCc2oc3c(cc(NS(=O)(=O)c4ccc5c6c(cccc46)C(=O)N5)c4ccccc43)c21	–	inconclusive [cytotoxic, partial curve]
Cc1cccc(N2CCN(C(=O)NCc3ccc(Cl)cc3)CC2)c1	–	inconclusive [cytotoxic, partial curve]
CCS(=O)(=O)CCSC(=N)N	–	inconclusive [cytotoxic, single point]
Cc1cccc2c1-c1sc(C(=O)NCCCN3CCc4ccccc4C3)cc1CO2	–	inconclusive [cytotoxic, single point]
Clc1ccc(C(Cn2ccnc2)OCc2c(Cl)cccc2Cl)c(Cl)c1 (stereo not drawn)	–	inconclusive [cytotoxic, single point]
COc1ccc(Oc2nc3c(C)cccn3c(=O)c2/C=C(\C#N)C(N)=O)cc1	–	inconclusive [cytotoxic, single point]
Cc1cc(OCC(=O)Nc2ccncc2)c(C)cc1Br	–	inconclusive [cytotoxic, single point]

Compound	activity, negative = toxicity	Potency
CCCCN(C(=O)c1ccccc1Br)C(c1ccc(OC)cc1)c1nc2ccccc2[nH]1 (stereo not drawn)	–	inconclusive [cytotoxic, single point]
N#Cc1c(SCC(=O)Nc2nccs2)sc2c(O)cc(=O)[nH]c12	–	inactive
Cc1cc(Cl)ccc1C(O)c1ncc(-c2cccc(F)c2)[nH]1 (stereo not drawn)	–	inconclusive [cytotoxic, single point]
CCc1ccc(NC(=O)CSc2n[nH]c(=O)n2C2CC2)cc1	–	inactive
COc1cc(CNCc2ccccn2)ccc1OCc1ccc(Cl)cc1	–	inconclusive [cytotoxic, single point]
Cc1nn(Cc2ccccc2Cl)c(C)c1NC(=O)c1noc(C(C)C)c1[N+](=O)[O-]	–	inactive
CN1OC[C@@H]2CN(S(=O)(=O)c3cccc4ccccc34)[C@H](c3ccc(-c4ccccc4)cc3)C[C@@H]21	–	inconclusive [cytotoxic, single point]
C/C(=N\Nc1ccc([N+](=O)[O-])cc1)c1ccc(-n2nncc2C)cc1	–	inconclusive [cytotoxic, single point]
COc1ccc(Nc2nc(-c3ccccc3)nc3ccccc23)cc1S(=O)(=O)N1CCOCC1	–	inconclusive [cytotoxic, single point]
COC(=O)COc1cccc2c(=O)n(CC(=O)N3CCC(C)CC3)ccc12	–	inactive
COc1ccccc1NC(=O)C(C)OC(=O)Cc1ccsc1 (stereo not drawn)	–	inactive
Cc1onc(-c2ccccc2Cl)c1C(=O)N/N=C(\N)COc1ccc(Cl)cc1	–	inconclusive [cytotoxic, single point]
COc1ncnc2c1ncn2CCCN[C@H](C)c1cccc2ccccc12	–	inactive
COc1ccc(C)cc1NC(=O)CSc1nnc(-c2cc3cccc(OC)c3o2)n1N	–	inconclusive [cytotoxic, single point]
O=C(N/N=C/c1cc(Br)cc(Cl)c1O)c1ccc2c(c1)OCO2	–	inconclusive [cytotoxic, partial curve]
CC(=O)c1ccc(NC(=O)c2ccc([N+](=O)[O-])o2)cc1	–	active: 18.4 µM
Cc1cccc(/C=C/C(=O)c2ccc(NC3=NCCCS3)cc2)c1	–	inconclusive [cytotoxic, single point]
c1ccc(-c2nnc3n2NC(c2ccc4c(c2)OCO4)S3)cc1 (stereo not drawn)	–	inconclusive [cytotoxic, single point]
COc1cc(N=Cc2c(O)[nH]c3ccccc23)cc(OC)c1OC	–	inconclusive [cytotoxic, partial curve, poor fit]
O=C(O)CCCn1c(=S)[nH]c2c(sc3ccc([N+](=O)[O-])cc32)c1=O	–	inactive
O=C1C(O)=CC(=C(c2ccccc2)c2ccccc2)c2ccccc21	–	inconclusive [cytotoxic, single point]
